From article PMC6035221, “Interaction between parasite-encoded JAB1/CSN5 and macrophage migration inhibitory factor proteins attenuates its proinflammatory function” (Scientific Reports, 2018)
No constants are given. Whether binding was seen depends on the method and setting. Some entries that bind do so weakly or less than the wild type. Tags and fused reporters may be left off the sequences shown.

What was measured:
[1] = biological target: T1, Entamoeba histolytica MIF (EhMIF), recombinant (Entamoeba histolytica) (UniProt C4LV00); test: pull-down; competition: EhMIF pre-incubated 30 minutes with or without 1X, 2X or 5X EhJAB1, then GST-CD74 bound magnetic beads overnight at 4 °C; immunoblot with anti-EhMIF; both purified
T1 sequence: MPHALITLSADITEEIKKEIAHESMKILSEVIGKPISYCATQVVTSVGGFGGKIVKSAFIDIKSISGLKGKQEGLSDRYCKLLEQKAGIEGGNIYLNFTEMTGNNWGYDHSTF

[2] = biological target: GST-tagged EhJAB1 deletion mutant Δ 2 (deletion of 51–133 aa) (Entamoeba histolytica) (UniProt C4LTS3); test: pull-down; GST-EhJAB1 (full length or deletion mutant) or GST from bacterial lysate immobilised on MagneGST magnetic beads, washed, incubated with 1 µg purified EhMIF overnight at 4 °C; immunoblot with anti-EhMIF; both purified
[3] = biological target: GST-tagged EhJAB1 deletion mutant Δ 1 (deletion of 3–50 aa) (Entamoeba histolytica) (UniProt C4LTS3); test: as above
[4] = biological target: T2, GST-tagged full-length EhJAB1 (Entamoeba histolytica) (UniProt C4LTS3); test: as above
T2 sequence: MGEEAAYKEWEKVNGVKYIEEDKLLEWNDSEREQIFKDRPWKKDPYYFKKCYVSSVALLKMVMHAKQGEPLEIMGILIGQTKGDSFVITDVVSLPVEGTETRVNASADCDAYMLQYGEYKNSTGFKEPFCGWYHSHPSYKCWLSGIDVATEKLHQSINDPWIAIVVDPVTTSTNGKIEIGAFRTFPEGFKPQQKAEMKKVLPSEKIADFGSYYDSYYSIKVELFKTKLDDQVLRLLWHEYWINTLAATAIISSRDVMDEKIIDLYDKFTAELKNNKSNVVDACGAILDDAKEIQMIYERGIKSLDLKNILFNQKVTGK

[5] = biological target: GST-tagged EhJAB1 deletion mutant Δ 4 (deletion of 148–187 aa) (Entamoeba histolytica) (UniProt C4LTS3); test: as above
[6] = biological target: GST-tagged EhJAB1 deletion mutant Δ 6 (deletion of 247–318 aa) (Entamoeba histolytica) (UniProt C4LTS3); test: as above
[7] = biological target: GST-tagged EhJAB1 deletion mutant Δ 3 (deletion of 134–147 aa) (Entamoeba histolytica) (UniProt C4LTS3); test: as above
[8] = biological target: GST-tagged EhJAB1 deletion mutant Δ 5 (deletion of 187–318 aa) (Entamoeba histolytica) (UniProt C4LTS3); test: as above
[9] = biological target: T1, Entamoeba histolytica MIF (EhMIF), recombinant (Entamoeba histolytica); test: co-IP; 1.5 µg EhMIF mixed with 500 ng biotinylated tag free EhJAB1, anti-EhMIF rabbit serum or rabbit IgG on Dynabeads, overnight at 4 °C; blot with anti-biotin HRP; both purified

B1: tag free EhJAB1 protein (non-biotinylated) (protein, UniProt C4LTS3 1-318)
chain: MGEEAAYKEWEKVNGVKYIEEDKLLEWNDSEREQIFKDRPWKKDPYYFKKCYVSSVALLKMVMHAKQGEPLEIMGILIGQTKGDSFVITDVVSLPVEGTETRVNASADCDAYMLQYGEYKNSTGFKEPFCGWYHSHPSYKCWLSGIDVATEKLHQSINDPWIAIVVDPVTTSTNGKIEIGAFRTFPEGFKPQQKAEMKKVLPSEKIADFGSYYDSYYSIKVELFKTKLDDQVLRLLWHEYWINTLAATAIISSRDVMDEKIIDLYDKFTAELKNNKSNVVDACGAILDDAKEIQMIYERGIKSLDLKNILFNQKVTGK
binding [1]: binds

B2: Entamoeba histolytica MIF (EhMIF), recombinant (natural protein)
chain: MPHALITLSADITEEIKKEIAHESMKILSEVIGKPISYCATQVVTSVGGFGGKIVKSAFIDIKSISGLKGKQEGLSDRYCKLLEQKAGIEGGNIYLNFTEMTGNNWGYDHSTF
binding [2]: binds | binding [3]: binds | binding [4]: binds | binding [5]: binds | binding [6]: binds | binding [7]: binds | binding [8]: no binding

B3: biotinylated tag free EhJAB1 (protein, UniProt C4LTS3 1-318)
chain: MGEEAAYKEWEKVNGVKYIEEDKLLEWNDSEREQIFKDRPWKKDPYYFKKCYVSSVALLKMVMHAKQGEPLEIMGILIGQTKGDSFVITDVVSLPVEGTETRVNASADCDAYMLQYGEYKNSTGFKEPFCGWYHSHPSYKCWLSGIDVATEKLHQSINDPWIAIVVDPVTTSTNGKIEIGAFRTFPEGFKPQQKAEMKKVLPSEKIADFGSYYDSYYSIKVELFKTKLDDQVLRLLWHEYWINTLAATAIISSRDVMDEKIIDLYDKFTAELKNNKSNVVDACGAILDDAKEIQMIYERGIKSLDLKNILFNQKVTGK
modifications: biotinylated (EZ-Link Sulfo-NHS-LC-Biotinylation kit)
binding [9]: binds
